Assay results reported in patent US20160311919A1.

Tests used:
[1] = target: GPNMB-V5His (recombinant human GPNMB extracellular domain with C-terminal V5-His tag) (human) (UniProt Q14956); test: ELISA, coated GPNMB, Ab 111 ng/mL
[2] = target: GPNMB-V5His (recombinant human GPNMB extracellular domain with C-terminal V5-His tag) (human) (UniProt Q14956); test: ELISA, coated GPNMB, Ab 1 ug/mL
[3] = target: GPNMB-V5His (recombinant human GPNMB extracellular domain with C-terminal V5-His tag) (human) (UniProt Q14956); test: ELISA, coated GPNMB, Ab 12.3 ng/mL
[4] = target: GPNMB-V5His (recombinant human GPNMB extracellular domain with C-terminal V5-His tag) (human) (UniProt Q14956); test: ELISA, coated GPNMB, Ab 3 ug/mL
[5] = target: GPNMB-V5His (recombinant human GPNMB extracellular domain with C-terminal V5-His tag) (human) (UniProt Q14956); test: ELISA, coated GPNMB, Ab 333 ng/mL
[6] = target: GPNMB-V5His (recombinant human GPNMB extracellular domain with C-terminal V5-His tag) (human) (UniProt Q14956); test: ELISA, coated GPNMB, Ab 37 ng/mL

Avg OD [1]: 0.023 OD | Avg OD [2]: 0.042 OD | Avg OD [3]: 0.017 OD | Avg OD [4]: 0.06 OD | Avg OD [5]: 0.028 OD | Avg OD [6]: 0.016 OD
B1: 2-24 (hybridoma of Table 6) (antibody, V domains shown)
VH: QLVQSGAEVKKPGESLKISCQGSGYIFTNYWIGWVRQMPGKGLEWMGVIYPDDSDTRYSPSFQGQVTISADKSISTAYLQWSSLKASDTAIYYCARQKWLQHPFDYWGQGTLVTVSS
VL: [about 100 residues not printed]FGQGTKVEIKR
